# The list shows a part of the results.
# Legend:
# Assay in all cases: glycan array binding signal (z-score within array); higher = stronger binding
# Details in all cases: glycan notation: IUPAC condensed, linker removed
# Fuc(a1-2)Gal = molecular target: Fuc(a1-2)Gal
# Procedure, shortened: (§1)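 Arrays were curated from the Consortium for Functional Glycomics database, 3228 in total, and kept only where the protein sequence was available. Binding is expressed as a within-array Z-score. This score was averaged across arrays of the same protein sequence at different concentrations or buffers and across linkers, and negative values can be read as non-binding.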
# Fuc(a1-2)Gal(b1-3)GalNAc = molecular target: Fuc(a1-2)Gal(b1-3)GalNAc
# Procedure, shortened: as §1
# [1] = molecular target: Fuc(a1-2)Gal(b1-3)GalNAc(a1-3)[Fuc(a1-2)]Gal(b1-4)Glc
# Procedure, shortened: as §1
# [2] = molecular target: Fuc(a1-2)Gal(b1-3)GalNAc(a1-3)[Fuc(a1-2)]Gal(b1-4)GlcNAc
# Procedure, shortened: as §1
# [3] = molecular target: Fuc(a1-2)Gal(b1-3)GalNAc(b1-3)Gal
# Procedure, shortened: as §1
# [4] = molecular target: Fuc(a1-2)Gal(b1-3)GalNAc(b1-3)Gal(a1-4)Gal(b1-4)Glc
# Procedure, shortened: as §1
# [5] = molecular target: Fuc(a1-2)Gal(b1-3)GalNAc(b1-4)[Neu5Ac(a2-3)]Gal(b1-4)Glc
# Procedure, shortened: as §1
# Fuc(a1-2)Gal(b1-3)GlcNAc = molecular target: Fuc(a1-2)Gal(b1-3)GlcNAc
# Procedure, shortened: as §1
# [6] = molecular target: Fuc(a1-2)Gal(b1-3)GlcNAc(b1-2)Man(a1-3)[Fuc(a1-2)Gal(b1-3)GlcNAc(b1-2)Man(a1-6)]Man(b1-4)GlcNAc(b1-4)GlcNAc
# Procedure, shortened: as §1
# [7] = molecular target: Fuc(a1-2)Gal(b1-3)GlcNAc(b1-2)Man(a1-3)[Fuc(a1-2)Gal(b1-3)GlcNAc(b1-2)Man(a1-6)]Man(b1-4)GlcNAc(b1-4)[Fuc(a1-6)]GlcNAc
# Procedure, shortened: as §1
# [8] = molecular target: Fuc(a1-2)Gal(b1-3)GlcNAc(b1-3)Gal(b1-4)Glc
# Procedure, shortened: as §1
# [9] = molecular target: Fuc(a1-2)Gal(b1-3)GlcNAc(b1-3)GalNAc
# Procedure, shortened: as §1
# [10] = molecular target: Fuc(a1-2)Gal(b1-3)GlcNAc(b1-3)[Fuc(a1-2)Gal(b1-3)GlcNAc(b1-6)]GalNAc
# Procedure, shortened: as §1
# [11] = molecular target: Fuc(a1-2)Gal(b1-3)GlcNAc(b1-3)[Gal(b1-4)GlcNAc(b1-6)]Gal(b1-4)Glc
# Procedure, shortened: as §1
# [12] = molecular target: Fuc(a1-2)Gal(b1-3)GlcNAc(b1-3)[Neu5Ac(a2-6)Gal(b1-4)GlcNAc(b1-6)]Gal(b1-4)Glc
# Procedure, shortened: as §1
# [13] = molecular target: Fuc(a1-2)Gal(b1-3)GlcNAc6S
# Procedure, shortened: as §1
# [14] = molecular target: Fuc(a1-2)Gal(b1-3)[Fuc(a1-4)]GlcNAc
# Procedure, shortened: as §1
# [15] = molecular target: Fuc(a1-2)Gal(b1-3)[Fuc(a1-4)]GlcNAc(b1-2)Man(a1-3)[Fuc(a1-2)Gal(b1-3)[Fuc(a1-4)]GlcNAc(b1-2)Man(a1-3)]Man(b1-4)GlcNAc(b1-4)GlcNAc
# Procedure, shortened: as §1
# [16] = molecular target: Fuc(a1-2)Gal(b1-3)[Fuc(a1-4)]GlcNAc(b1-2)Man(a1-3)[Fuc(a1-2)Gal(b1-3)[Fuc(a1-4)]GlcNAc(b1-2)Man(a1-6)]Man(b1-4)GlcNAc(b1-4)[Fuc(a1-6)]GlcNAc(b1-4)[Fuc(a1-6)]GlcNAc
# Procedure, shortened: as §1
# [17] = molecular target: Fuc(a1-2)Gal(b1-3)[Fuc(a1-4)]GlcNAc(b1-3)[Fuc(a1-3)[Gal(b1-4)]GlcNAc(b1-6)]Gal(b1-4)Glc
# Procedure, shortened: as §1
# [18] = molecular target: Fuc(a1-2)Gal(b1-3)[Fuc(a1-4)]GlcNAc(b1-3)[Gal(b1-4)GlcNAc(b1-6)]Gal(b1-4)Glc
# Procedure, shortened: as §1
# Fuc(a1-2)Gal(b1-4)Glc = molecular target: Fuc(a1-2)Gal(b1-4)Glc
# Procedure, shortened: as §1
# Fuc(a1-2)Gal(b1-4)Glc6S = molecular target: Fuc(a1-2)Gal(b1-4)Glc6S
# Procedure, shortened: as §1
# Fuc(a1-2)Gal(b1-4)GlcNAc = molecular target: Fuc(a1-2)Gal(b1-4)GlcNAc
# Procedure, shortened: as §1
# [19] = molecular target: Fuc(a1-2)Gal(b1-4)GlcNAc(b1-2)Man
# Procedure, shortened: as §1
# [20] = molecular target: Fuc(a1-2)Gal(b1-4)GlcNAc(b1-2)Man(a1-3)[Fuc(a1-2)Gal(b1-4)GlcNAc(b1-2)Man(a1-6)]Man(b1-4)GlcNAc(b1-4)GlcNAc
# Procedure, shortened: as §1
# [21] = molecular target: Fuc(a1-2)Gal(b1-4)GlcNAc(b1-2)Man(a1-3)[Fuc(a1-2)Gal(b1-4)GlcNAc(b1-2)Man(a1-6)]Man(b1-4)GlcNAc(b1-4)[Fuc(a1-6)]GlcNAc
# Procedure, shortened: as §1
# [22] = molecular target: Fuc(a1-2)Gal(b1-4)GlcNAc(b1-2)[Fuc(a1-2)Gal(b1-4)GlcNAc(b1-4)]Man(a1-3)[Fuc(a1-2)Gal(b1-4)GlcNAc(b1-2)Man(a1-6)]Man(b1-4)GlcNAc(b1-4)GlcNAc
# Procedure, shortened: as §1
# [23] = molecular target: Fuc(a1-2)Gal(b1-4)GlcNAc(b1-3)Gal(b1-4)GlcNAc
# Procedure, shortened: as §1
# [24] = molecular target: Fuc(a1-2)Gal(b1-4)GlcNAc(b1-3)Gal(b1-4)GlcNAc(b1-2)Man(a1-3)[Fuc(a1-2)Gal(b1-4)GlcNAc(b1-3)Gal(b1-4)GlcNAc(b1-2)Man(a1-6)]Man(b1-4)GlcNAc(b1-4)GlcNAc
# Procedure, shortened: as §1
binder,measurement,setting,value
Clec49 (Caenorhabditis elegans) (protein) MTRLTLLLFGLLGAATAQTCNTGGIYNEQFNRCYQYFTAPAQFSFAEQQCNLLGGHLASVQNGQENALLQSNAANSFKRSNYSDYWIGATDLETSGTWKWTDPSVTFDYSNWQLGEPQSGSDCAIQDKGDGTWSAIGCTSYRPYVCVTPVIMTATCPPITTPIPTTCPTPAPCPIKQCVPSCDQGWTYFSPTDFCYRVYHGEKFNDAEASCVLLGGHLASIHSLTENTFVNNIASCGIKEGKYEHLAWIGMRKVGQDWVWTDGTPSDYFNWAPKQPDNPKKELCVQTAPDLSHDKWYENWNNLECNEVMRAYICKKASIHN,glycan array binding signal (z-score),Fuc(a1-2)Gal,-0.075
same,glycan array binding signal (z-score),Fuc(a1-2)Gal(b1-3)GalNAc,-0.662
same,glycan array binding signal (z-score),[1],0.087
same,glycan array binding signal (z-score),[2],-0.49
same,glycan array binding signal (z-score),[3],-0.69
same,glycan array binding signal (z-score),[4],-0.229
same,glycan array binding signal (z-score),[5],-0.798
same,glycan array binding signal (z-score),Fuc(a1-2)Gal(b1-3)GlcNAc,-0.244
same,glycan array binding signal (z-score),[6],1.97
same,glycan array binding signal (z-score),[7],-0.114
same,glycan array binding signal (z-score),[8],-0.721
same,glycan array binding signal (z-score),[9],-0.025
same,glycan array binding signal (z-score),[10],-0.2
same,glycan array binding signal (z-score),[11],0.231
same,glycan array binding signal (z-score),[12],-0.627
same,glycan array binding signal (z-score),[13],-0.559
same,glycan array binding signal (z-score),[14],-0.335
same,glycan array binding signal (z-score),[15],0.844
same,glycan array binding signal (z-score),[16],0.548
same,glycan array binding signal (z-score),[17],-0.463
same,glycan array binding signal (z-score),[18],0.21
same,glycan array binding signal (z-score),Fuc(a1-2)Gal(b1-4)Glc,-1.05
same,glycan array binding signal (z-score),Fuc(a1-2)Gal(b1-4)Glc6S,0.229
same,glycan array binding signal (z-score),Fuc(a1-2)Gal(b1-4)GlcNAc,-0.203
same,glycan array binding signal (z-score),[19],-0.406
same,glycan array binding signal (z-score),[20],1.29
same,glycan array binding signal (z-score),[21],0.612
same,glycan array binding signal (z-score),[22],-0.032
same,glycan array binding signal (z-score),[23],-0.957
same,glycan array binding signal (z-score),[24],-0.03
